Measurements as given in patent publication US20260274933A1 (Innovent, published 2026).

Key:
[1] = biological target: T1, hAng2-biotin (R&D, Catalog No. BT623B/CF) (human, UniProt O15123 68-496, limits assumed, biotinylated); assay: blocking ELISA: hTie2 coated, binding of biotinylated hAng2 blocked; unit from the axis
T1 construct: also called Ang2-Bio (R&D, Catalog No. BT623B/CF); Recombinant Biotinylated hAngiopoietin-2 protein (R&D)
T1 sequence (looked up): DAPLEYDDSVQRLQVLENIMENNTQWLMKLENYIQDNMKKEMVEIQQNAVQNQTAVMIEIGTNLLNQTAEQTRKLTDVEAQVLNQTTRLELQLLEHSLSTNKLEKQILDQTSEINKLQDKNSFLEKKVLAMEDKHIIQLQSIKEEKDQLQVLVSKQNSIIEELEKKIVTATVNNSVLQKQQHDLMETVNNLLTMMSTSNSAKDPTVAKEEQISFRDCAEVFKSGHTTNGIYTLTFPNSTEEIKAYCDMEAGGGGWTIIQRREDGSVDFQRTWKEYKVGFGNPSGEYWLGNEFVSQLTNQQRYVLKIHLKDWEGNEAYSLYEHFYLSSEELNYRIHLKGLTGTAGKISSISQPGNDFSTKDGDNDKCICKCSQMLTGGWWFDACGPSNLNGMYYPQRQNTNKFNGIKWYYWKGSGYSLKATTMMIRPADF
Experimental: (§1) The antigen-antibody mixture obtained as described above was incubated in the microplate for 90 min and washed three times with PBS, and the supernatant was discarded. 100 μL of Avidin-HRP (Invitrogen) diluted in a 1:10000 ratio was added to each well, incubated at room temperature for 30 min, and washed six times with PBS. A TMB chromogenic solution (solarbio) was added to the plate at 100 μL/well for color development for 1 min, and the reaction was stopped by adding a stop solution (Solarbio) at 100 μL/well.

[2] = biological target: T1, hAng2-biotin (R&D, Catalog No. …); assay: as above; remark: listed apart in the source
Experimental: as §1

[3] = biological target: T2, hAng2-Fc (Beijing Sino Biological, Catalog No. 10691-H02H) (human, UniProt O15123 19-496); assay: flow cytometry blocking: binding of hAng2-Fc to Tie2 on 293-Tie2 cells blocked, Mean PE-A; unit from the axis
T2 construct: Bought fusion protein; also called human Ang2-hFc; recombinant hAng2-Fc protein; not shown: human Fc of the bought fusion protein
T2 sequence (looked up): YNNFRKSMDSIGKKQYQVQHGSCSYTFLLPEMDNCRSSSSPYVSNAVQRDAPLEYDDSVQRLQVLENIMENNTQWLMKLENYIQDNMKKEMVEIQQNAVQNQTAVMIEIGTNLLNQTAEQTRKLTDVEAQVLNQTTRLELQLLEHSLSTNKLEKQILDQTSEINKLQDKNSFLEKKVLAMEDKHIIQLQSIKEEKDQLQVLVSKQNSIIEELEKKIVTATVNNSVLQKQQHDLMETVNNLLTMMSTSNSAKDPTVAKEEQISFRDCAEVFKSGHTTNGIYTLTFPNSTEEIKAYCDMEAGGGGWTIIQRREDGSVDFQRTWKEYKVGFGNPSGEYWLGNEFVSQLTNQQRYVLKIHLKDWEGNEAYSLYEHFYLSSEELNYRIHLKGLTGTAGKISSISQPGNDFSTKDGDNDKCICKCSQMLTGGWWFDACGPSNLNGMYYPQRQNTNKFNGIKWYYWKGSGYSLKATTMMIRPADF
Experimental: (§2) The cells were centrifuged at 300 g for 5 min. The supernatant was discarded. Then the cells were resuspended in an antigen-antibody mixture. The mixture was incubated on ice for 30 min. PBS was added at 100 μL/well. After centrifugation at 300 g for 5 min, the mixture was washed once with PBS. 100 μL of goat anti-human IgG-PE (SouthernBiotech) diluted in a 1:200 ratio was added to each well. After a 20-min ice bath, PBS was added at 100 μL/well. The mixture was centrifuged at 300 g for 5 min, prior to one wash with PBS. The cells were resuspended with 100 μL of PBS. The cell fluorescence signal values were measured by a flow cytometer (BD Biosciences). According to MFI, the concentration-dependent curve was fitted with GraphPad.

[4] = biological target: T2, hAng2-Fc (Beijing Sino Biological, …); assay: flow cytometry blocking: binding of hAng2-Fc to Tie2 on 293-Tie2 cells blocked, Mean-PE-A; unit from the axis
Experimental: as §2

B1: Positive control antibody BI836880 (VEGFA/HSA/Ang2) (bispecific antibody)
chain: DVQLVESGGGLVQPGGSLRLSCAASGRTFSSYSMGWFRQAPGKEREFVVAISKGGYKYDAVSLEGRFTISRDNAKNTVYLQINSLRPEDTAVYYCASSRAYGSSRLRLADTYEYWGQGTLVTVSSGGGGSGGGS[letters of about 120 residues omitted]GGGGSGGGSEVQLVESGGGLVQPGGSLRLSCAVSGITLDDYAIGWFRQAPGKEREGVSAIRSSGGSTYYADSVKGRFTISSDNSKNTVYLQMNSLRPEDTAVYYCAAVPAGRLRYGEQWYPIYEYDAWGQGTLVTVSS
notes: also called B1836880
How did the IC50 [1] turn out when B1 was run?
The IC50 was 22.2 nM.

And the IC50 [2]?
The IC50 was 16.9 nM.

And the IC50 [3]?
Its IC50 is 1.23 nM.

And the IC50 [4]?
The IC50 was 0.742 nM.

B2: IEX04-010 (bispecific antibody)
chain: SDTGRPFVEMYSEIPEIIHMTEGRELVIPCRVTSPNITVTLKKFPLDTLIPDGKRIIWDSRKGFIISNATYKEIGLLTCEATVNGHLYKTNYLTHRQTNTIIDVVLSPSHGIELSVGEKLVLNCTARTELNVGIDFNWEYPSSKHQHKKLVNRDLKTQSGSEMKKFLSTLTIDGVTRSDQGLYTCAASSGLMTKKNSTFVRVHEK[letters of human IgG1 Fc omitted]GGGSGGGGSGGGGSEVQLLESGGGLVQPGGSLRLSCAASGFALDYYAIGWFRQAPGKGLEGVSCISSGEGSTYYADSVKGRFTISRDNSKNTVYLQMNSLRAEDTAVYYCATDSRGDDVACEGLRRNEYDYWGQGTLVTVSS
notes: Aflibercept-type VEGFR ECD-Fc fused to the anti-Ang2 VHH; also called VEGFR extracellular domain + Fc + linker + LA24C11.10
Which results are given for B2?
IC50 [1]: 3.68 nM; IC50 [3]: 0.427 nM

Read-outs that look alike come from different tables or passages of the source.
